Results reported in PubChem BioAssay AID686978 (National Center for Advancing Translational Sciences (NCATS), 2013).
Several values for one entry are separate records, joined by “and”; a condition that tells them apart may be missing. Equal values may be shown once. Hit rate of the full screen: of about 420,000 compounds, about 64,000 (15%) were called active. Inconclusive results, whose numbers are uncertain, are shown with a selection of clear calls. Calls follow the shape of the dose curve; as a rule, active = well fitted inhibition curve with a large enough effect; inconclusive = small, poorly fitted or top-dose-only effect; inactive = flat fitted curve, though single readings scatter. Potencies of inconclusive entries are doubtful fits and often do not repeat.
% is scaled to controls: 0 for no effect and ±100 for the full control effect; potency is read from the fitted curve at half-maximal effect; tags tell the direction and shape of the fitted curve.

Assay: qHTS for Inhibitors of human tyrosyl-DNA phosphodiesterase 1 (TDP1): qHTS in cells in absence of CPT; also: nearly all actives have a fitted effect of over 55% in size
Details: DT40 Tdp1-/- hTDP1 cells, no CPT, ATP luminescence, 48 h; activity change, negative = growth inhibition: at 46.2 µM (top of the series) unless noted
Procedure, shortened: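 Compound effects on proliferation are scored in DT40 Tdp1-/-;hTDP1 cells in the absence of CPT. ATP levels (CellTiter-Glo luminescence) are recorded after a ≥48 hr, 37 °C incubation.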
With `O=C(O)C[C@H]1c2cc(C(F)(F)F)ccc2S(=O)(=O)N1Cc1ccccc1` the Potency was “inactive and inconclusive: 31.6 µM [inhibitor, single point]”. In the case of `C#CCN(C[C@H]1[C@H](OC(=O)NCC2CCCCC2)[C@H](OC(=O)NCC2CCCCC2)C[C@H]2C(=O)N(c3ccccc3)C(=O)[C@@H]12)S(=O)(=O)c1ccc(C)cc1`, the Potency is reported as inconclusive: 29.1 µM [inhibitor, single point]. In the case of `COC(=O)c1cc2occc2n1Cc1nc(-c2ccc(Cl)cc2)oc1C`, the Potency is reported as inconclusive: 29.1 µM [inhibitor, single point]. For `Cc1ccc(NC(=O)Cn2cc(S(=O)(=O)Cc3ccccc3)c3ccccc32)cc1C`, the Potency was inconclusive: 18.4 µM [inhibitor, single point]. For `O=C(Nc1ccc(Cl)c(C(F)(F)F)c1)C1Cc2c(-c3ccccc3Oc3ccccc3)ccnc2O1` (stereo unspecified), the Potency was inconclusive: 20.6 µM [inhibitor, single point]. In the case of `Cc1ccc(NC(=O)CCn2c(=O)[nH]c3ccsc3c2=O)cc1C`, the Potency is reported as inconclusive: 16.4 µM [inhibitor, single point]. In the case of `C/C(CCc1ccc2c(c1)OCO2)=N\N=C1\NC(=O)CC(C(=O)Nc2ccc(Cl)cc2)S1` (stereo unspecified), the Potency is reported as “inactive”. With `CCOc1ncccc1C(=O)NCCN1C(=O)S/C(=C/c2cccs2)C1=O` the Potency was inconclusive: 18.4 µM [inhibitor, partial curve, poor fit]. With `CN(C)S(=O)(=O)N(CC(=O)Nc1ccc2ccccc2c1)c1ccccc1` the Potency was “inactive”. In the case of `CC(C)(C)c1ccc(NC(=O)N2CCCN(c3c(Cl)cncc3Cl)CC2)cc1`, the Potency is reported as active: 7.31 µM. For `COc1ccccc1-c1c(C)[nH]n2c(=O)c(Cc3ccccc3)c(C)nc12`, the Potency was inconclusive: 25.9 µM [inhibitor, single point]. In the case of `Cc1c(N=Cc2cc(Br)cc(Br)c2O)cccc1C(=O)O`, the Potency is reported as inconclusive: 29.1 µM [inhibitor, single point]. For `COc1ccc(N(CC(=O)Nc2cc(Cl)ccc2OC)S(=O)(=O)c2c(C)noc2C)cc1`, the Potency was active: 4.11 µM. With `CCOC(=O)c1sc2ncnc(N3CCN(C(=O)OCC)CC3)c2c1C` the Potency was inconclusive: 20.6 µM [inhibitor, single point]. For `COc1cc(C(=O)O/N=C2/C=C(C)C(=O)C=C2C)cc(OC)c1OC`, the Potency was active: 2.06 µM. With `C=CCNC(=S)N/N=C/c1ccc(OCc2ccccc2)cc1` the Potency was “inactive”. With `Cc1nn(CC(C)C)c(Cl)c1C(=O)N(C)CC(=O)Nc1ccc(Cl)cc1` the Potency was inconclusive: 29.1 µM [inhibitor, single point]. With `COc1cc(CCNC(=O)c2ccccc2NC(=O)C2=C(C)OCCS2)cc(OC)c1OC` the Potency was inconclusive: 16.4 µM [inhibitor, partial curve]. In the case of `Cc1cc2c(=Cc3ccc(N(C)C)cc3)c3ccccc3n2[n+]1C`, the Potency is reported as active: 0.461 µM. In the case of `COc1ccc(-c2nnc3sc(-c4ccccc4OC)nn23)cc1`, the activity change, negative = growth inhibition is reported as inconclusive: -31.5% [inhibitor]. For `O=C(NCc1ccccc1)C1=C[C@@H](C2CCCCC2)C[C@@H](OCc2ccc(CO)cc2)O1`, the Potency was active: 16.4 µM. With `Cc1cc(C)cc(-n2ncc3c2CCCC3NC(=O)c2cc(C)n(C)n2)c1` (stereo unspecified) the Potency was inconclusive: 25.9 µM [inhibitor, single point]. In the case of `COc1cc2cnc(-c3ccsc3)cc2cc1OC`, the Potency is reported as inconclusive: 29.1 µM [inhibitor, single point]. For `CCOCCCNC(=O)CN1C(=O)CCn2nc(-c3cccn3C)cc21`, the Potency was “inactive”. In the case of `O=C(c1cc(-c2ccccc2Cl)nc2ccccc12)N1CCOCC1`, the Potency is reported as “inactive”. With `CN(CC(=O)Nc1ccc(Cl)c(Cl)c1)C(=O)/C=C/c1ccc(F)cc1` the Potency was “inactive”. With `CCC1(c2ccc(F)cc2)NC(=O)N(CC(=O)Nc2cccc(S(=O)(=O)N3CCCCC3)c2)C1=O` (stereo unspecified) the Potency was inconclusive: 20.6 µM [inhibitor, single point]. With `CCC(c1nnnn1-c1c(C)cccc1C)N1CCN(CCN2CCOCC2)CC1` (stereo unspecified) the Potency was “inactive”. With `COc1ccc(C2=Nc3ccccc3NC(=O)C2N(CCc2ccccc2)C(=O)c2cccs2)cc1` (stereo unspecified) the Potency was inconclusive: 23.1 µM [inhibitor, single point]. With `CN(C)Cc1ccccc1CNC(=O)c1cccc(S(=O)(=O)Nc2ccc3c(c2)OCO3)c1` the Potency was inconclusive: 23.1 µM [inhibitor, single point]. For `CC1=C(OC(=O)c2ccccc2)C(C)(C)C(c2ccccc2)OC1=O` (stereo unspecified), the Potency was inconclusive: 18.4 µM [inhibitor, single point]. With `Cc1nc2ccccc2c(=O)n1/N=C/C=C/c1ccccc1` the Potency was inconclusive: 20.6 µM [inhibitor, single point]. In the case of `COc1ccccc1NC(=O)C(=O)N/N=C(\C)CC(=O)Nc1ccc(OCc2ccccc2)cc1`, the Potency is reported as inconclusive: 7.31 µM [inhibitor, partial curve]. With `CSc1ccc(CCNC(=O)C2CCCN(S(=O)(=O)N(C)c3ccc(F)cc3)C2)cc1` (stereo unspecified) the Potency was active: 9.2 µM. In the case of `COc1cc(C(=O)Nc2ccc(Oc3ncnc4sc(-c5ccccc5)cc34)cc2)cc(OC)c1OC`, the Potency is reported as inconclusive: 14.6 µM [inhibitor, single point]. In the case of `CC1CCCC(C)N1/N=C/c1ccccc1Br` (stereo unspecified), the Potency is reported as inconclusive: 29.1 µM [inhibitor, single point]. For `CC1(C(=O)O)CCCN(C(=O)c2ccc3c(c2)C(C)(C)CCC3(C)C)C1` (stereo unspecified), the Potency was “inactive”. In the case of `C/C(=N\NC(=O)CCCOc1ccc(Cl)cc1C)c1ccc(C)o1`, the Potency is reported as inconclusive: 20.6 µM [inhibitor, partial curve]. In the case of `CC1CCN(C(=O)C(C)OC(=O)CSc2ccc([N+](=O)[O-])cc2)CC1` (stereo unspecified), the Potency is reported as inconclusive: 29.1 µM [inhibitor, single point]. For `COc1ccc(NC(=O)CN2C(=O)C(c3ccccc3)=NC23CCC(C)CC3)cc1Cl` (stereo unspecified), the Potency was inconclusive: 18.4 µM [inhibitor, single point]. With `COc1ccc(-c2[nH]ncc2Oc2ccccc2OC)c(O)c1` the Potency was inconclusive: 16.4 µM [inhibitor, single point]. In the case of `Cc1n[nH]c(=O)c2c(NC(=O)CSc3nncs3)oc(C)c12`, the Potency is reported as “inactive”. For `Cc1cc(C(=O)Nc2cccc(C(=O)O)c2)oc1C`, the Potency was inconclusive: 20.6 µM [inhibitor, single point]. In the case of `COc1ccccc1NC(=O)Cn1c(=O)n(C)c(=O)c2sc3c(c21)COC(C)(C)C3`, the Potency is reported as “inactive”. In the case of `COc1ccc(OC)c(NC(=O)c2cccnc2Sc2ccccc2)c1`, the Potency is reported as “inactive”. In the case of `O=C1Cc2cc(S(=O)(=O)Nc3cccc(C(F)(F)F)c3)cc3c2N1CCC3`, the Potency is reported as “inactive”. With `Cc1sc(NC(=O)c2cccs2)c(C(=O)OC(C)C)c1C` the Potency was inconclusive: 29.1 µM [inhibitor, single point]. For `COc1ccccc1C1CN(Cc2cccc(OCCO)c2)Cc2ccccc2O1` (stereo unspecified), the Potency was inconclusive: 20.6 µM [inhibitor, partial curve, poor fit]. In the case of `O=c1cc(O)c2sc3nc4c(c(C(F)(F)F)c3c2[nH]1)CCCCC4`, the Potency is reported as inconclusive: 18.4 µM [inhibitor, single point]. For `CCS(=O)(=O)c1nc(S(=O)(=O)c2ccc(C)cc2)c(N2CC(C)CC(C)C2)s1` (stereo unspecified), the Potency was inconclusive: 29.1 µM [inhibitor, single point]. In the case of `COc1ccc(-n2ccnc(NCCc3ccc(S(N)(=O)=O)cc3)c2=O)cc1Cl`, the Potency is reported as inconclusive: 16.4 µM [inhibitor, single point]. For `CC(C)c1ccc(NC(=O)c2cc(S(=O)(=O)NCCc3ccccc3)ccc2F)cc1`, the Potency was active: 10.3 µM. With `CN(C(=O)c1ccc(NC(=O)C2CCCN(C(=O)OC(C)(C)C)C2)cc1)C1CC1` (stereo unspecified) the Potency was inconclusive: 23.1 µM [inhibitor, single point]. For `Cc1cccn2c(=O)cc(COc3cccc(NC(=O)Nc4cccc(Cl)c4)c3)nc12`, the Potency was “inactive”. In the case of `COC(=O)[C@@]1(Cc2ccc(OC)cc2)[C@H]2c3cc(C(=O)N4CCCC4)n(Cc4ccc(S(C)(=O)=O)cc4)c3C[C@H]2CN1C(=O)c1ccccc1`, the Potency is reported as inconclusive: 20.6 µM [inhibitor, single point]. With `O=C(CCCn1c(=O)c2ccccc2n(CC(=O)NCc2ccco2)c1=O)NCc1ccco1` the Potency was inconclusive: 3.66 µM [inhibitor, full curve, poor fit]. With `COc1cc2ccccc2cc1C(=O)Nc1ccc(C)cc1` the Potency was inconclusive: 29.1 µM [inhibitor, single point]. For `Cc1ccc(NC(=O)CN(c2ccc(Cl)cc2)S(=O)(=O)c2cc([N+](=O)[O-])ccc2Cl)c(C)c1`, the Potency was active: 14.6 µM. For `Cc1ccc2[nH]c3c(c2c1)CN(C(=O)CN1c2ccc(F)cc2CCC1C)CC3` (stereo unspecified), the Potency was inconclusive: 18.4 µM [inhibitor, single point]. In the case of `Cc1cccc(COc2ccc(/C=N/NC(=O)c3nnn(-c4nonc4N)c3C)cc2)c1`, the Potency is reported as inconclusive: 25.9 µM [inhibitor, single point]. In the case of `CCC(=O)c1ccc(OCC(O)Cn2nnc3ccccc32)cc1` (stereo unspecified), the Potency is reported as “inactive”. With `Clc1ccc(-c2nc3ccc(Br)cn3c2Cc2ccsc2)cc1` the Potency was active: 16.4 µM. In the case of `O=C1C(Nc2cccc(O)c2)=C(N2CCCCC2)C(=O)c2ccccc21`, the Potency is reported as active: 7.31 µM. In the case of `COc1ccc(C(C)C)cc1S(=O)(=O)NCCc1c(C)[nH]c2c(Cl)cccc12`, the Potency is reported as inconclusive: 20.6 µM [inhibitor, single point]. For `COc1ccc(OC)c(CNC(=O)C(C)n2nc(C)c3c(C)n(-c4ccccc4)nc3c2=O)c1` (stereo unspecified), the Potency was “inactive”. In the case of `CN(C)CCC=C1c2ccccc2C(C)(C)c2ccccc21`, the Potency is reported as inconclusive: 33.5 µM [inhibitor, single point].
